Assay results from PubChem BioAssay AID686978 (National Center for Advancing Translational Sciences (NCATS), 2013).
“And” between values parts separate entries of the source, which are not always exact repeats. Identical values can stand only once. In all, about 420,000 compounds went through this assay and about 64,000 (15%) were called active. Inconclusive means that the source gave no clear call. Such entries were picked first, then a sample of the others. The call rests on the fitted dose curve; in most records, active means well fitted inhibition curve with a large enough effect; inconclusive means small, poorly fitted or top-dose-only effect; inactive means flat fitted curve, though single readings scatter. No potency is given beside an inconclusive call; the fits are too rough.

assay: qHTS for Inhibitors of human tyrosyl-DNA phosphodiesterase 1 (TDP1): qHTS in cells in absence of CPT; conditions: DT40 Tdp1-/- hTDP1 cells, no CPT, ATP luminescence, 48 h; series mostly up to 46.2 µM; further: nearly all actives have a fitted effect of over 55% in size
Method in brief: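 Growth of hTDP1-complemented DT40 Tdp1-knockout cells is measured by ATP luminescence after at least 48 hr compound exposure at 37 °C, with DMSO substituting for the 20 nM CPT used in the parallel screen.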
Potency means the concentration at half of the fitted maximal effect; tags describe the fitted curve by direction and shape.

**Q.** For O=C1CCc2cc(NS(=O)(=O)c3ccc(F)cc3)cc3c2N1CCC3, which Potency is on record?
**A.** Its Potency is inconclusive [inhibitor, single point].

**Q.** For Cc1sc(NC(=O)CSc2nc(N)n(CC(=O)c3ccccc3)n2)c(C#N)c1C, which Potency is on record?
**A.** Its Potency is “inactive”.

**Q.** For CCNC(=O)c1c(NC(=O)c2cc(=O)c3ccc(C)c(C)c3o2)sc2c1CCCC2, which Potency is on record?
**A.** The Potency was “inactive”.

**Q.** With Cc1cccc(N2CCN(S(=O)(=O)c3ccc(F)c(C(=O)Nc4cccc(Cl)c4C)c3)CC2C)c1 (stereo not drawn) as the compound, how does the Potency read?
**A.** Its Potency is inconclusive [inhibitor, partial curve].

**Q.** For Cc1ccc(NC(=O)CCNC(=O)c2ccc([N+](=O)[O-])cc2)cc1S(=O)(=O)N(C)C, which Potency is on record?
**A.** The Potency was inconclusive [inhibitor, single point].

**Q.** For CCCn1nnc(NC(=O)c2ccccc2Cl)n1, which Potency is on record?
**A.** The Potency was “inactive”.

**Q.** Which Potency does the source give for Cc1cccc(C(=O)NNC(=O)c2ccc(Cl)cc2)c1O here?
**A.** Its Potency is active: 20.6 µM.

**Q.** Which Potency does the source give for CCCC1C2CN(C(C)C)CC=C2C(C#N)=C(N)C1(C#N)C#N (stereo not drawn) here?
**A.** The Potency was inconclusive [inhibitor, single point].

**Q.** For O=S(=O)(Nc1ccc(Cl)cc1)c1ccc2c(c1)CCO2, which Potency is on record?
**A.** Its Potency is inconclusive [inhibitor, partial curve].

**Q.** For O=C(CCNC(=O)c1ccc(Br)cc1)Nc1cc(Cl)ccc1-n1cncn1, which Potency is on record?
**A.** Its Potency is inconclusive [inhibitor, partial curve].

**Q.** With CCCCN(CCCC)C(=O)c1cc2c(=O)n3ccccc3nc2s1 as the compound, how does the Potency read?
**A.** Its Potency is inconclusive [inhibitor, single point].

**Q.** For CC(C)n1c(O)c(N=Nc2ccccn2)c2ccccc21, which Potency is on record?
**A.** Its Potency is “inactive”.

**Q.** With Cc1ccc(Cl)cc1N1CCN(C(=O)C(C)n2ncn3cccc3c2=O)CC1 (stereo not drawn) as the compound, how does the Potency read?
**A.** The Potency was active: 16.4 µM and active: 23.1 µM.

**Q.** Which Potency does the source give for CCCCOc1ccc(-c2nnc(-c3cc[n+](C)cc3)o2)cc1 here?
**A.** Its Potency is inconclusive [inhibitor, single point].

**Q.** For CC1=CN2C(=N)/C(=C/c3ccc(C)o3)C(=O)N=C2S1, which Potency is on record?
**A.** Its Potency is “inactive”.

**Q.** For CC(=O)Nc1ccc(NC(=O)C2Cc3c(-c4cccc(C(C)=O)c4)ccnc3O2)cc1 (stereo not drawn), which Potency is on record?
**A.** Its Potency is “inactive”.

**Q.** Which Potency does the source give for Cc1ccc(-c2nc(N)sc2CC(=O)OCC(=O)N2C(C)CCCC2C)cc1 (stereo not drawn) here?
**A.** The Potency was inconclusive [inhibitor, single point].

**Q.** Which Potency does the source give for CN(CCOc1ccccc1)C(=O)C1CCN(C(=O)c2ccc(Cl)cc2)CC1 here?
**A.** The Potency was inconclusive [inhibitor, single point].

**Q.** Which Potency does the source give for Cc1ccc(NC(=O)C2CC(=O)N(C(C)C)C2)cc1Cl (stereo not drawn) here?
**A.** The Potency was “inactive”.

**Q.** Which Potency does the source give for C[C@H](CO)N1C[C@H](C)[C@@H](CN(C)C(=O)NC2CCCCC2)Oc2ccc(NC(=O)Nc3ccc(C(F)(F)F)cc3)cc2C1=O here?
**A.** The Potency was inconclusive [inhibitor, single point].

**Q.** For Cc1ccc(OCCCC(=O)N(C)CC(=O)Nc2ccccc2Br)cc1, which Potency is on record?
**A.** Its Potency is “inactive”.

**Q.** With Cc1ccc(S(=O)(=O)N2CCN(c3c([N+](=O)[O-])cc(C(F)(F)F)cc3[N+](=O)[O-])CC2)cc1 as the compound, how does the Potency read?
**A.** Its Potency is inconclusive [inhibitor, single point].

**Q.** For O=C(NCCSc1c(-c2ccc(Cl)cc2)[nH]c2ccccc12)c1ccc(S(=O)(=O)N2CCOCC2)cc1, which Potency is on record?
**A.** Its Potency is active: 3.66 µM.

**Q.** Which Potency does the source give for COc1ccc(Nc2ncnc3c2cnn3C)c(OC)c1 here?
**A.** Its Potency is “inactive”.

**Q.** Which Potency does the source give for C[C@@H]1CN([C@@H](C)CO)C(=O)c2cc(NC(=O)C3CC3)ccc2O[C@@H]1CN(C)C(=O)NC1CCCCC1 here?
**A.** Its Potency is inconclusive [inhibitor, partial curve, poor fit].

**Q.** Which Potency does the source give for CCOn1c(=O)c(-c2cc(OC)ccc2OC)[n+]([O-])c2ccccc21 here?
**A.** Its Potency is “inactive”.

**Q.** Which Potency does the source give for CCN1CCCc2cc(CN(CCN3CCOCC3)C(=S)Nc3ccccc3C)ccc21 here?
**A.** The Potency was “inactive”.

**Q.** With COCCCNC(=O)/C=C/c1c(Cl)cccc1Cl as the compound, how does the Potency read?
**A.** Its Potency is inconclusive [inhibitor, single point].

**Q.** For NC(Cc1ccc(Cl)cc1)c1csc(NC(=O)NCC2CCCCC2)n1 (stereo not drawn), which Potency is on record?
**A.** Its Potency is active: 8.2 µM.

**Q.** With Cc1cc(C(=O)N2CCCC(N3CCN(c4cccc(Cl)c4)CC3)C2)n(C)n1 (stereo not drawn) as the compound, how does the Potency read?
**A.** The Potency was inconclusive [inhibitor, single point].

**Q.** With O=S(=O)(Nc1ccc(-c2ccc(N3CCCCCC3)nn2)cc1)c1ccc(C(F)(F)F)cc1 as the compound, how does the Potency read?
**A.** The Potency was inconclusive [inhibitor, single point].

**Q.** Which Potency does the source give for COc1ccc(C(=O)NCc2nnc(SCC(=O)c3ccccc3)n2C)cc1OC here?
**A.** The Potency was “inactive”.

**Q.** For COc1ccc(C)cc1N(C(=O)COc1cccc(F)c1)c1nc2ccccc2s1, which Potency is on record?
**A.** The Potency was inconclusive [inhibitor, single point].

**Q.** Which Potency does the source give for O=C(Nc1ccccc1OC(F)F)c1ccc(N2CCCC2=O)cc1 here?
**A.** The Potency was “inactive”.

**Q.** For O=C(NNC(=O)c1ccccc1Br)c1ccccc1Cl, which Potency is on record?
**A.** The Potency was “inactive”.

**Q.** For CC(C)n1cc(/C=C/c2cc[n+](C)cc2)c2ccccc21, which Potency is on record?
**A.** Its Potency is active: 0.517 µM.

**Q.** Which Potency does the source give for COc1ccc(OCC2c3cc(OC)c(OC)cc3CCN2C(=O)C(C)C)cc1 (stereo not drawn) here?
**A.** The Potency was active: 23.1 µM.

**Q.** With Cc1cc(C(F)(F)F)c2c(N)c(C(=O)Nc3c(Cl)cccc3Cl)sc2n1 as the compound, how does the Potency read?
**A.** The Potency was inconclusive [inhibitor, single point].

**Q.** With CC(O)(c1ccccc1)c1nc(-c2cc3ccccc3o2)cs1 (stereo not drawn) as the compound, how does the Potency read?
**A.** The Potency was active: 13 µM.

**Q.** For CCOc1ccc(NC(=O)COC(=O)c2ccccc2OCc2ccccc2Br)cc1, which Potency is on record?
**A.** The Potency was “inactive”.

**Q.** For CCn1c(N2CCC(Cc3ccccc3)CC2)nc2c1c(=O)[nH]c(=O)n2C, which Potency is on record?
**A.** Its Potency is inconclusive [inhibitor, single point].

**Q.** With COc1ccc(CN2C(=O)c3cccc4cccc(c34)C2=O)cc1 as the compound, how does the Potency read?
**A.** Its Potency is “inactive”.

**Q.** With NC(=O)NCCN1CCN(c2ncc(C(F)(F)F)cc2Cl)CC1 as the compound, how does the Potency read?
**A.** The Potency was “inactive”.

**Q.** With O=C(CN1CCN(Cc2ccc(F)cc2)C1=O)NCc1ccccc1 as the compound, how does the Potency read?
**A.** Its Potency is “inactive”.

**Q.** For CSc1nsc(SCC(=O)Nc2ccc(O)c(C(=O)O)c2)n1, which Potency is on record?
**A.** The Potency was “inactive”.

**Q.** For Cc1cc(C)c(S(=O)(=O)NCC(c2ccco2)N2CCN(c3ccccc3)CC2)c(C)c1 (stereo not drawn), which Potency is on record?
**A.** The Potency was active: 25.9 µM.

**Q.** With O=S1(=O)CCOC[C@H](Cc2ccccc2)N1Cc1ccc(Cl)cc1 as the compound, how does the Potency read?
**A.** Its Potency is inconclusive [inhibitor, single point].

**Q.** For CCOc1ccccc1C(=O)NCC(=O)N1CCN(Cc2ccc3c(c2)OCO3)CC1, which Potency is on record?
**A.** The Potency was inconclusive [inhibitor, partial curve].
